{
  "source": "paper PMC4336329",
  "about": "(PLoS ONE, 2015)",
  "note": "Among all 310,000 compounds or so, about 2,200 (0.71%) showed an effect of 50% or more. Effects have a minus sign here. This is one part of the list.",
  "data": [
    {"molecular_target": "human ether-à-go-go-related gene (hERG) potassium channel (human, UniProt Q12809)", "sequence (Q12809 whole entry, looked up)": "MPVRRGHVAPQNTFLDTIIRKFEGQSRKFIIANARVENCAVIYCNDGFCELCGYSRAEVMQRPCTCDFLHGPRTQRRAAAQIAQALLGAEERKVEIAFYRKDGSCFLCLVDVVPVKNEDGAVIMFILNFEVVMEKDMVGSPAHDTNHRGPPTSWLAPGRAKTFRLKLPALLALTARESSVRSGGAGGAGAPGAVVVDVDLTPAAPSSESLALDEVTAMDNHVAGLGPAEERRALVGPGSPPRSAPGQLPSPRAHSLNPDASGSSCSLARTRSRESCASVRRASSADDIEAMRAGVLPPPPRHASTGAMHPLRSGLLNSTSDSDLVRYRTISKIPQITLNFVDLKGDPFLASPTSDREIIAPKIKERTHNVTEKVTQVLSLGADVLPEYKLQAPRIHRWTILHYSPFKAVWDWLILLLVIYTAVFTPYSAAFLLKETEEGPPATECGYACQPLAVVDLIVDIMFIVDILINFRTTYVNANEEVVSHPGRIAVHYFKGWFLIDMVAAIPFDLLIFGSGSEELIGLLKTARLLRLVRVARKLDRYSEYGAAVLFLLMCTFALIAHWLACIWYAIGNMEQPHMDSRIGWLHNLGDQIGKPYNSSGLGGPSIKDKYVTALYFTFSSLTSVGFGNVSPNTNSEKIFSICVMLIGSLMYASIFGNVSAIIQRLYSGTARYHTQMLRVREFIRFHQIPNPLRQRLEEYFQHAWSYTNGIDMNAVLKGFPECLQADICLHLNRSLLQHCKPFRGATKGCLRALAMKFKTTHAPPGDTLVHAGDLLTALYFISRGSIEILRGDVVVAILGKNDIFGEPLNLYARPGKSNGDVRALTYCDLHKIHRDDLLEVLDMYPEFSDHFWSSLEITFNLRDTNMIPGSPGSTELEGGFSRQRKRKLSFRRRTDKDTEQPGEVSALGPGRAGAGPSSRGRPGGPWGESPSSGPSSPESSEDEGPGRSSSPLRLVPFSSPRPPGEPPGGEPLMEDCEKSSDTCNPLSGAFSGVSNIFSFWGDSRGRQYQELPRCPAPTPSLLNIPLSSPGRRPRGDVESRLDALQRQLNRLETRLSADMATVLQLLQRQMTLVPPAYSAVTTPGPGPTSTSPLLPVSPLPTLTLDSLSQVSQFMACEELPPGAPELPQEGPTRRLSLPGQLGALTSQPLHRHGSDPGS", "test": "primary screen, population patch clamp on CHO cells stably expressing hERG", "units": {"hERG current change (%, negative = inhibition) at 1uM": "%"}, "values": [
      {"compound": "CCC(c1nnc(SCC(=O)Nc2ccc(C(C)=O)cc2)n1C1CCCCC1)N(C)C", "note": "(centres unmarked)", "hERG current change (%, negative = inhibition) at 1uM": 0.027},
      {"compound": "C=CCN(C(=O)c1ccccn1)C(C(=O)NCc1ccccc1)c1ccccc1F", "note": "(centres unmarked)", "hERG current change (%, negative = inhibition) at 1uM": 12.1},
      {"compound": "C=CCc1ccc(OCCOCCOc2ccc(C)cc2[N+](=O)[O-])c(OC)c1", "hERG current change (%, negative = inhibition) at 1uM": 2.58},
      {"compound": "N#CCCNC(=O)Cn1c(COc2ccc(Cl)cc2)nc2ccccc21", "hERG current change (%, negative = inhibition) at 1uM": -7.71},
      {"compound": "Cc1ccc(NC(=O)c2ccccn2)c(Br)c1", "hERG current change (%, negative = inhibition) at 1uM": 13.7},
      {"compound": "CCC(C(=O)Nc1ccc(Cl)cc1)N1CCCC1=O", "note": "(centres unmarked)", "hERG current change (%, negative = inhibition) at 1uM": 15},
      {"compound": "O=C(COC(=O)c1ccc(F)c(S(=O)(=O)N2CCOCC2)c1)NC1CCCCC1", "hERG current change (%, negative = inhibition) at 1uM": 9.85},
      {"compound": "Cc1cccn2c(=O)c(/C=N/O)c(NCc3ccccc3)nc12", "hERG current change (%, negative = inhibition) at 1uM": 9.29},
      {"compound": "O=C(c1ccncc1)C12CN3CN(CN(C3)C1)C2", "hERG current change (%, negative = inhibition) at 1uM": 8.51},
      {"compound": "CC1CC(C)(C)CC2(C1)NC(=O)N(CC(=O)OCc1ccc(Br)cc1)C2=O", "note": "(centres unmarked)", "hERG current change (%, negative = inhibition) at 1uM": 2.21},
      {"compound": "CCOc1ccc(S(=O)(=O)NC(C)(C)C)cc1-c1nc2c(C(C)(C)C)nn(C)c2c(=O)[nH]1", "hERG current change (%, negative = inhibition) at 1uM": 9.15},
      {"compound": "CCCCNC(=O)C1CCCN(S(=O)(=O)c2c(C)noc2/C=C/c2cccs2)C1", "note": "(centres unmarked)", "hERG current change (%, negative = inhibition) at 1uM": -3.22},
      {"compound": "Cc1ccc(NC(=O)CCCCCN2C(=O)[C@@H]3Cc4ccccc4CN3C2=O)c(Cl)c1", "hERG current change (%, negative = inhibition) at 1uM": 9.09},
      {"compound": "COC(=O)c1ccc(NC(=O)c2c(Br)cnn2C)cc1", "hERG current change (%, negative = inhibition) at 1uM": 14.1},
      {"compound": "CCCCC(CC(C)O)c1n[nH]c(=S)n1-c1ccccc1", "note": "(centres unmarked)", "hERG current change (%, negative = inhibition) at 1uM": 4.45},
      {"compound": "COc1ccccc1CNc1ccc(CNc2ncn[nH]2)cc1", "hERG current change (%, negative = inhibition) at 1uM": 10.5},
      {"compound": "CC(CCc1ccccc1)NC(=O)C(=O)NCCc1ccccc1", "note": "(centres unmarked)", "hERG current change (%, negative = inhibition) at 1uM": -10.2},
      {"compound": "CCc1cc(=O)oc2c(C)c(OC(C)C(=O)NCC3CCC(C(=O)O)CC3)ccc12", "note": "(centres unmarked)", "hERG current change (%, negative = inhibition) at 1uM": 18},
      {"compound": "CC(C)C(NC(=O)C(C)N1C(=O)c2ccccc2C1=O)c1ccccc1", "note": "(centres unmarked)", "hERG current change (%, negative = inhibition) at 1uM": 17.3},
      {"compound": "CC(=O)Nc1sc2c(c1CN1CCCC1)CCCC2", "hERG current change (%, negative = inhibition) at 1uM": 10.4},
      {"compound": "Cc1ccc(CNC(=O)C2CCCN(c3nc4ccccc4o3)C2)cc1", "note": "(centres unmarked)", "hERG current change (%, negative = inhibition) at 1uM": 8.27},
      {"compound": "O=C(COC(=O)c1ccc[nH]c1=O)NCC12CC3CC(CC(C3)C1)C2", "hERG current change (%, negative = inhibition) at 1uM": 6.89},
      {"compound": "Cc1ccc(NC(=O)Nc2nnc(-c3ccncc3)s2)cc1", "hERG current change (%, negative = inhibition) at 1uM": 6.26},
      {"compound": "COCCCNC(=S)Nc1cccc2ncccc12", "hERG current change (%, negative = inhibition) at 1uM": 13},
      {"compound": "COc1ccccc1OCCCCOc1ccccc1C(C)=O", "hERG current change (%, negative = inhibition) at 1uM": 12.5},
      {"compound": "Cc1nc(-c2ccccc2)cc(N2CCCC2)n1", "hERG current change (%, negative = inhibition) at 1uM": -6.1},
      {"compound": "CCOC(=O)C1(CCCc2ccccc2)CCN(C(=O)CCc2cnccn2)CC1", "hERG current change (%, negative = inhibition) at 1uM": -16.2},
      {"compound": "CCc1cccc(C)c1NC(=S)NCC(c1cccnc1)N1CCOCC1", "note": "(centres unmarked)", "hERG current change (%, negative = inhibition) at 1uM": 7.34},
      {"compound": "CCOC(=O)c1c(NC(=O)CSc2nnnn2-c2ccccc2OCC)sc2c1CC(C)(C)NC2(C)C", "hERG current change (%, negative = inhibition) at 1uM": -20.3},
      {"compound": "COc1ccc(-c2nc(CS(=O)(=O)CC(=O)NCCc3cc(OC)ccc3OC)c(C)o2)cc1", "hERG current change (%, negative = inhibition) at 1uM": -2.88},
      {"compound": "CC1=CC(C)(C)NC(=S)N1c1cc(C)cc(C)c1", "hERG current change (%, negative = inhibition) at 1uM": -0.0536},
      {"compound": "CC1(C)Cc2c(C#N)c(NCc3ccco3)nc(-c3ccco3)c2CO1", "hERG current change (%, negative = inhibition) at 1uM": -0.837},
      {"compound": "COc1ccc(C(=O)Oc2cccc3cccnc23)cc1[N+](=O)[O-]", "hERG current change (%, negative = inhibition) at 1uM": 5.14},
      {"compound": "Cc1cc(=O)oc2c(C(=O)/C=C/c3ccccc3)c(O)ccc12", "hERG current change (%, negative = inhibition) at 1uM": 3.94},
      {"compound": "CC(C)CCN1CC(=O)N2Cc3[nH]c4ccccc4c3C[C@H]2C1=O", "hERG current change (%, negative = inhibition) at 1uM": 16.1},
      {"compound": "CC(C)NC(=O)Cn1c(SCC(=O)N2CCc3ccccc3C2)nc2ccccc21", "hERG current change (%, negative = inhibition) at 1uM": 4.07},
      {"compound": "O=c1c(C=NCC2CCCO2)c(-c2ccccc2)[nH]n1-c1ccc([N+](=O)[O-])cc1", "note": "(centres unmarked)", "hERG current change (%, negative = inhibition) at 1uM": 5.93},
      {"compound": "CCCn1c(N)c(N(CCOC)C(=O)CSCC(=O)Nc2ccc(OC)cc2)c(=O)[nH]c1=O", "hERG current change (%, negative = inhibition) at 1uM": 7.32},
      {"compound": "COC(=O)C1C(O)C(C)C(O)C(C)/C=C\\C=C(/C)C(=O)Nc2c(C)c(OC(C)=O)c3c(c2O)C(=O)C(C)=C2OCOC(=C23)/C(C)=C/C(C)(O)C(O)C(C)C1O", "note": "(centres unmarked)", "hERG current change (%, negative = inhibition) at 1uM": 9.05},
      {"compound": "C=CCc1ccccc1OCC(=O)N/N=C/c1ccccc1OCC", "hERG current change (%, negative = inhibition) at 1uM": 5.01},
      {"compound": "CC(C)(C)c1ccc(CCC(CC(=O)O)CC(=O)O)cc1", "hERG current change (%, negative = inhibition) at 1uM": -0.528},
      {"compound": "Cc1cc(CSC(=N)N)c(CSC(=N)N)cc1C", "hERG current change (%, negative = inhibition) at 1uM": 2.96},
      {"compound": "CCC(=O)Nc1c2c(nn1-c1ccccc1)CSC2", "hERG current change (%, negative = inhibition) at 1uM": 15.7},
      {"compound": "COc1cc(/C=N/NC(=O)CNC(=O)c2ccc3c(c2)OCCO3)ccc1O", "hERG current change (%, negative = inhibition) at 1uM": 6.33},
      {"compound": "O=C(C1CC1)N1CCc2cc(S(=O)(=O)N3CCOCC3)ccc21", "hERG current change (%, negative = inhibition) at 1uM": 2.52},
      {"compound": "CC(=O)N1CC[n+]2c(-c3ccc([N+](=O)[O-])cc3)csc21.[Br-]", "hERG current change (%, negative = inhibition) at 1uM": 2.01},
      {"compound": "CCSc1ccc([C@@H]2[C@H]3C(=O)N(CC)C(=O)[C@H]3[C@]3(C(=O)OC)CCCCN23)cc1.O=C(O)C(F)(F)F", "hERG current change (%, negative = inhibition) at 1uM": 6.46},
      {"compound": "c1ccc2[nH]c(NCc3ccc4c(c3)OCO4)nc2c1", "hERG current change (%, negative = inhibition) at 1uM": 11.5},
      {"compound": "Cc1nc2ccccc2c(=O)n1-c1ccc(F)c(NS(=O)(=O)c2ccccc2F)c1", "hERG current change (%, negative = inhibition) at 1uM": 25.9},
      {"compound": "Cc1nn2c(N)c(C#N)cnc2c1-c1ccccc1", "hERG current change (%, negative = inhibition) at 1uM": 7.98},
      {"compound": "Cn1nccc1C(=O)NCCN1C(=O)OC(C)(C)C1(C)O", "note": "(centres unmarked)", "hERG current change (%, negative = inhibition) at 1uM": -2.79},
      {"compound": "O=C(N=C1SC2CS(=O)(=O)CC2N1c1cc(Cl)ccc1Cl)C1CC1", "note": "(centres unmarked)", "hERG current change (%, negative = inhibition) at 1uM": 9.34},
      {"compound": "C=CCn1cc(C(=O)NCCCOC)c(=O)c2cc(S(=O)(=O)N(CC)CC)ccc21", "hERG current change (%, negative = inhibition) at 1uM": -6.18},
      {"compound": "CC(c1nnc(SCC(=O)N2CCc3ccccc32)n1-c1ccc(Cl)cc1)N(C)C", "note": "(centres unmarked)", "hERG current change (%, negative = inhibition) at 1uM": 7.08},
      {"compound": "CCc1cccc(C)c1NC(=O)CN(C)Cc1ccccc1F.O=C(O)C(=O)O", "hERG current change (%, negative = inhibition) at 1uM": -1.84},
      {"compound": "COC(=O)c1ccc(S(=O)(=O)c2ccc([N+](=O)[O-])cc2)cc1", "hERG current change (%, negative = inhibition) at 1uM": 4.05}
    ]}
  ]
}
